PubChem BioAssay AID1461 (National Center for Advancing Translational Sciences (NCATS), 2008)
The campaign covered roughly 220,000 compounds. About 2,300 (1%) were called active. Inconclusive means that the source gave no clear call. Such entries were picked first, then a sample of the others. Calls follow the shape of the dose curve; as a rule, active = well fitted inhibition curve with a large enough effect; inconclusive = small, poorly fitted or top-dose-only effect, or effect the other way; inactive = no such curve, though single readings can be large or run the other way. Potencies of inconclusive entries are left out as doubtful fits.

Biological target: Neuropeptide S receptor (Homo sapiens) (UniProt Q6W5P4)
Sequence of UniProt Q6W5P4 (Q6W5P4 whole entry, looked up): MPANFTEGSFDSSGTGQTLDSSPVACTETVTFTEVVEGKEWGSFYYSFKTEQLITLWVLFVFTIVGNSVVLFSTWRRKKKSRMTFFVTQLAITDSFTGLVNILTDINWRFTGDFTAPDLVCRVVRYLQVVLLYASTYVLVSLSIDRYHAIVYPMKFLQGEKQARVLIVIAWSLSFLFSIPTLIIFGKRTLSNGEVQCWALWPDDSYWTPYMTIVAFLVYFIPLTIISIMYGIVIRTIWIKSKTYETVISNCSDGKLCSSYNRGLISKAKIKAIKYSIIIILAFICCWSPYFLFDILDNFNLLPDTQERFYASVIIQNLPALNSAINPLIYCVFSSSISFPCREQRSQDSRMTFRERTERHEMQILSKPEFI
Assay: qHTS Assay for Antagonists of the Neuropeptide S Receptor: cAMP Signal Transduction; also: nearly all actives have a fitted effect of over 50% in size
Conditions: CHO-NPSR cells, cAMP TR-FRET, antagonist mode; activity change, negative = inhibition: at 38.3 µM (top of the series) unless noted
Excerpt: NIH Chemical Genomics Center [NCGC] NIH Molecular Libraries Probe Production centers Network [MLPCN] MLPCN Grant: X01-DA026210-01 Assay Submitter (PI): Heilig, Markus Alexander NCGC Assay Overview: Neuropeptide S receptor (NPSR), previously known as GPR154, is a recently de-orphanized G protein coupled receptor. Its endogenous ligand is the 20 amino acids peptide Neuropeptide S (NPS). […] NPS and its receptor are found in various tissues. Specifically they are highly expressed in brain areas that have been implicated in modulation of arousal, stress and anxiety. Central administration of NPS in mice produces an unusual profile of activity by inducing wakefulness and arousal, while at the same time suppressing anxiety. Therefore, NPSR may represent a novel drug target for the treatment of sleep and anxiety disorders. To identify NPSR antagonists, we developed a cell-based cAMP assay. NPS can stimulate the production of cAMP in Chinese hamster ovary cells stably expressing NPS receptor. This change in intracellular cAMP level can be detected by a homogeneous LANCE cAMP assay based on the TR-FRET (time resolved fluorescence resonance energy transfer) between a europium-labeled cAMP tracer complex and a cAMP-specific antibody labeled with Alexa Fluor 647. The europium-labeled cAMP tracer complex is formed by the tight interaction between Biotin-cAMP (b-cAMP) and streptavidin labeled with Europium-W8044 chelate (Eu-SA). Light pulse at 320 nm excites the europium of the cAMP tracer and the energy emitted is transferred to the Alexa molecule bound to the cAMP antibody, generating a TR-FRET signal at 665 nm. Residual energy from the europium will produce a light at 620 nm. The native unlabeled cAMP from cell lysates competes with the europium-cAMP tracer for antibody binding and reversely reduces the emission signal of Alexa by interrupting FRET between the two labeled molecules. Both emission signals from the FRET donor (620 nm) and the acceptor (665 nm) can be detected by a plate reader in the TRF mode. Expression of result in fluorescence ratio (665 nm/620 nm) helps to normalize differences due to cell density and reagent dispensing. This assay was successfully optimized to a 1536-well plate format.
NCGC Assay Protocol Summary: A Chinese hamster ovary (CHO) cell line stably expressing the NPS receptor (CHO-NPSR) was obtained from Dr. Heilig lab at NIAAA and maintained in F-12 Kaighn's media (Invitrogen, Carlsbad, CA, 21127) supplemented with 10 % FBS, 100 units/ml penicillin, 100 ug/ml streptomycin and 250 ug/ml geneticin at 37C, 5% CO2 in a humidified atmosphere. Before the assay, aliquots of cells were frozen and stored at -135C. The assay was performed in 1536-well format. Data are reported for both the ratio of the two emission wavelengths, and also for the component 'donor' channel, Em2=620. Data were normalized to the controls for basal activity (DMSO only) and 100% inhibition (No NPS control). IC50 values were determined from concentration-response data modeled with the standard Hill equation. NPS 1536-well assay protocol: (1) Fresh or frozen CHO-NPSR cells were suspended in F-12 Kaighn's media supplemented with 10 % FBS, 100 units/ml penicillin and 100 ug/ml streptomycin. Cells were plated at 4 ul/well (1200 cells) to white, tissue culture treated 1536-well plates, and then cultured at 37C, 5 % CO2 for 16 to 30 hours. (2) Add 23 nl/well of compound in DMSO solution. The final titration for each compound was between 0.6 nM and 46 uM. (3) Add 1 ul of stimulation reagent (1X HBSS buffer, 5 mM HEPES, 0.1% BSA, 500 uM RO-201724 (Sigma-Aldrich, B8279), 1.5% Alexa 647-labeled anti-cAMP antibody (from Perkin Elmer), 100 nM NPS) (4) Incubation at 37C, 5 % CO2 for 60 min. (5) Add 1 ul/well detection reagent. Detection reagent was prepared by adding biotin labeled cAMP (4%), streptavidin labeled with Europium-W8044 chelate (1.33%) and TritonX-100 (1%) to detection buffer. […]
% is scaled to controls: 0 for no effect and ±100 for the full control effect; potency is read from the fitted curve at half-maximal effect; tags tell the direction and shape of the fitted curve.

Compound | Potency | activity change, negative = inhibition
O=C(Nc1ccc(Cl)cc1)N1CCCN(c2ccc(C(F)(F)F)cc2[N+](=O)[O-])CC1 | inconclusive [activator, single point] | –
O=C(NCCN1C(=O)S/C(=C\c2ccc(Cl)c(Cl)c2)C1=O)c1ccc2c(c1)C(=O)N(Cc1ccncc1)C2=O | – | inactive: -5.76%
CCCC1O[C@@H]2C[C@H]3[C@@H]4CCC5=CC(=O)C=C[C@]5(C)C4[C@@H](O)C[C@]3(C)[C@]2(C(=O)CO)O1 (stereo not given in full) | inconclusive [inhibitor, partial curve] | –
O=C(Cn1ncc(Cl)c(Cl)c1=O)N1CCN(S(=O)(=O)c2ccc3ccccc3c2)CC1 | active: 12.6 µM | –
CCn1c(=O)cc(OCC(=O)NCCCN2CCC(C)CC2)c2ccccc21 | – | inactive: -3.81% [at 46.1 µM]
CCn1c(-c2ccc(N(C)C)cc2)nc2ccccc21 | inconclusive [inhibitor, single point] | –
CN1C(=O)CS/C1=N\NC(=O)COc1cccc2cccnc12 | – | inactive: -5.2%
O=C(c1cccnc1)N1CCN(Cc2cccc(Br)c2)CC1 | – | inactive: -8.59% [at 46.1 µM]
Cc1ccc(C)n1-c1ccc(N2CCOCC2)c([N+](=O)[O-])c1 | – | inactive: -32.7%
Cc1sc(NC(=O)c2ccco2)nc1-c1ccc2c(c1)CC(C)N2C(=O)C1CC1 (stereo not given) | inconclusive [inhibitor, partial curve] | –
COC(=O)c1cccc(NC(=O)NC23CC4CC(CC(C4)C2)C3)c1 | inconclusive [inhibitor, single point] | –
CCCCC(=O)NCc1ccc2c(c1)cc(C)n2C | inconclusive [inhibitor, single point] | –
COc1ccc(Nc2nc(NCc3ccco3)nc(N/N=C/c3ccccc3)n2)cc1 | inconclusive [inhibitor, single point] | –
COc1ccccc1NNC(=O)c1cc(C(C)(C)C)nn1Cc1ccccc1 | inconclusive [activator, single point] | –
CCN(CC)C(=S)NC(=O)Cc1ccccc1 | – | inactive: -17.4%
Cc1ccc(-c2nn(-c3cccc(F)c3)cc2CN2CCN(c3ccccn3)CC2)o1 | inconclusive [activator, single point] | –
COc1ccc(C(CCN2CCCC(C)C2)c2c(OC)cc(OC)c3c(-c4ccccc4)cc(=O)oc23)cc1 (stereo not given) | inconclusive [inhibitor, single point] | –
CN(C(=O)Cc1c(C(=O)O)n(C)c2ccccc12)c1ccc(F)cc1 | – | inactive: 11.6%
Cc1ccccc1C(=O)N1CCC(C(=O)N2CCN(S(=O)(=O)c3ccccc3F)CC2)CC1 | – | inactive: 7.39%
Cc1cc2nc(/N=C(\N)NC(=O)C(C)C)nc(C)c2cc1C | – | inactive: -1.5% [at 7.67 µM]
